Test results taken from the supplement of paper PMC3334620.
The full ranking holds about 33,000 sequences; the median of “E-score (-0.5 to 0.5)” is about -0.035, and the highest 2% start at about 0.35. The list shows a part of the results.

target: T1, Pdr3 (UniProt P33200); experiment: PBM E-score (8-mer binding enrichment) (E-score (-0.5 to 0.5)); higher = stronger / more preferred TF binding; most listed sequences are background and not binding sites; details: protein concentration: 200 nM; construct: GST-full length
T1 sequence: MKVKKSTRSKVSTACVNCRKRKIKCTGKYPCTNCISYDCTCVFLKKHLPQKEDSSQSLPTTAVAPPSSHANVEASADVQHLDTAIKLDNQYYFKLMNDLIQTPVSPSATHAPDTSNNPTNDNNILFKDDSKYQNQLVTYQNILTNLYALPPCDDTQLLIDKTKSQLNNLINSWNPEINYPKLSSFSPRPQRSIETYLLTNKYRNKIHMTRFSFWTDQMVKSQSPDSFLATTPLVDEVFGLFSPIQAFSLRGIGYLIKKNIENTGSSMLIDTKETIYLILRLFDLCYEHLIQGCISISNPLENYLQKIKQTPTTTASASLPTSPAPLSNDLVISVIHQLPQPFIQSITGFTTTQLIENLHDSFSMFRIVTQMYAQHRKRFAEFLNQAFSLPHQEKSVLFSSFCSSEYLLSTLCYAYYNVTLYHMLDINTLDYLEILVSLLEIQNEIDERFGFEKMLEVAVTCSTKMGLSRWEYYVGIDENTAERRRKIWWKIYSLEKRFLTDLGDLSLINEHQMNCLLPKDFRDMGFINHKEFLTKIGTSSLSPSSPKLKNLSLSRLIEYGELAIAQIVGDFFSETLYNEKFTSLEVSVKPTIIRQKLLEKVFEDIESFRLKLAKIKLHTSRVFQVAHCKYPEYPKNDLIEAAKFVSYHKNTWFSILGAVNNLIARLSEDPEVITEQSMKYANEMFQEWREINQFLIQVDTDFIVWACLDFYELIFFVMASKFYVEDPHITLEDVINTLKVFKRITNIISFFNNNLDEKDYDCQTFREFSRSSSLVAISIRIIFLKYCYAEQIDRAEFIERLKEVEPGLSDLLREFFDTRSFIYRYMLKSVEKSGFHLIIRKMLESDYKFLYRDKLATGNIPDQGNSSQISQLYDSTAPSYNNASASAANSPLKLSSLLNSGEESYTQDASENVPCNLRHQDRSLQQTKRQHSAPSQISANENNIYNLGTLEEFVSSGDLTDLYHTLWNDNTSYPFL
Summary of the method: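 The E-score, a modified Wilcoxon-Mann-Whitney statistic, was computed by the Universal PBM Analysis Suite for every ungapped eight-base word pooled with its reverse complement. Scans behind it were normalised with masliner after bound GST-tagged yeast transcription factors were detected with fluorescent anti-GST. The proteins, at about 100-200 nM, had been applied to universal all-10-mer Agilent arrays made double-stranded by primer extension.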

Sequence | PBM E-score
GCGGGCTA | 0.0437
GATTACTA | 0.0418
AAACCCCG | 0.264
ACGAGCAT | -0.187
CCGTACTA | 0.293
CAAGGTCC | -0.0578
AGCTTTCG | -0.0763
GCACAAGA | -0.00863
TCCCGAGA | 0.339
GTCACCAC | -0.103
ACCAACGA | -0.117
CTTTGGAC | 0.0264
CAAGCCTA | -0.238
ATTCTCGG | 0.243
AAATGAGG | -0.12
ATGTCGAC | 0.0706
GCCTCGCC | 0.0846
GTCATGAA | 0.0842
AATGTGAT | -0.209
CTCGTCCA | -0.0423
AAGATCGA | -0.0218
AGGGTGTA | -0.14
AGGCTACT | -0.167
AGCGCACC | 0.0564
GATTCACC | 0.126

Sequence | PBM E-score
GTCGACCA | 0.121
ACGGTCGC | -0.0547
TCGACGCA | 0.0524
CATTAAGC | -0.137
CTGTCATC | -0.169
GTATATAC | -0.115
AAACTCCG | 0.3
ACCTTTAA | -0.0915
AGTTAAAA | -0.0117
GCCCCTAC | -0.111
GGATAGCC | 0.175
ACAAGGTA | -0.0922
CCGAACAC | 0.194
GTAGTCAA | -0.0785
AAGTGTTC | 0.13
CGGGAACC | 0.312
AAGTATGA | 0.0365
TCGTAAGA | -0.098
GTGTAACA | -0.112
AAGAGAAT | 0.153
ATTGCTAC | -0.0505
CTCTGAGC | -0.219
AAAGGACC | -0.00409
GGTCCACA | -0.232
AACACTCG | -0.0431

Sequence | PBM E-score
CTGGCCCC | 0.0884
CTACTGGC | -0.0039
CTCCAGCA | -0.205
ATGACCAA | -0.0317
AATAGCGC | 0.0976
CTGTCAAG | -0.177
GCTTTACC | -0.0101
CCTCAAAA | -0.0756
CTGACAAG | -0.159
GGAACCCC | 0.212
GGCCTACC | 0.0488
TAACTGGA | -0.0126
GCCGTGCA | 0.0751
CCTCGTAC | 0.118
AACTTTTA | 0.00331
ATGAGTAC | -0.0214
CCTAGGTC | -0.00572
ATCAAAAG | -0.107
AAGACGCC | 0.085
CTAATATA | -0.246
AGGCCAGG | -0.13
CAGAGTGG | -0.184
AGAAACAG | -0.109
AGACGCCT | -0.25
GATTACCA | -0.0218

Sequence | PBM E-score
AAAGTAGT | -0.17
CATTAGGG | -0.244
ACGTAGTG | -0.0399
TCAATCGA | 0.0156
ATCCCAAA | 0.0137
CCAGGCCC | -0.0292
ATTGCCCC | -0.0313
CCTACTAC | -0.22
ACATCACA | -0.114
GCGTCAGA | -0.153
GCCGATTA | 0.0363
AACTACTA | 0.144
CAGGTTTA | 0.054
ATGAGAAA | -0.22
TAAGACGA | -0.189
AGCGATGA | 0.0631
AATAAGCC | -0.0909
ACTGGTCT | -0.183
CGCAGTTA | 0.0512
CCGCCTGA | 0.145
ATGAGCAT | 0.0552
GAATCACC | -0.027
GTATCGCA | -0.0133
CGGGACCG | 0.373
ACTAGACT | -0.23

Sequence | PBM E-score
AGTGTCAA | -0.0103
CAGATATC | -0.0706
ACGGTGCC | 0.0198
ACAAAGTC | -0.0159
CCGCTGAC | 0.0773
AGTGAAAA | 0.109
ACCTAGGT | -0.246
CCCGCACG | 0.206
CGTCGGAG | 0.178
GGGCGCCC | 0.33
CACGTCTC | -0.0106
ATAAACCG | 0.179
CTAATGCA | 0.00839
ACCCTTTC | -0.119
ACAGACGC | -0.0168
GAACGTGA | 0.15
GCCTCGTA | -0.126
CACCTGCA | -0.142
GTAGCCGA | -0.0719
CATGCTAA | -0.141
GACGCTCC | 0.0552
AACCGACC | 0.143
ATGCTGAG | -0.198
CAACGCAG | -0.00259
GAATAACC | -0.128

Sequence | PBM E-score
GCCTGAAA | 0.00211
GCGCACCC | 0.21
ACACACGG | 0.179
AGACGTTC | -0.0259
ATGCGCCA | -0.0436
ACCTAAAG | -0.12
CCAAACCG | 0.225
GTCAAGAC | -0.202
GCTCCGAC | 0.0362
ATTCTGCA | -0.0488
ATCTGGGC | -0.055
GCAGTCCA | -0.109
ATTGTGGG | -0.00957
AGCGCGAT | 0.117
CTTATCGC | 0.0776
TGGCACCA | -0.116
GACCGCAC | -0.0765
ACGGTTCC | 0.252
ACTCCGTA | 0.13
AGACCAGC | -0.164
CAAGATAA | 0.0303
ATATGTAA | -0.259
ATAATGGG | 0.0544
CGGACGAC | 0.196
ATCGACTA | -0.128

Sequence | PBM E-score
TATCAGCA | -0.02
CAAGATGA | -0.265
ACCCAAGG | -0.0894
TAACGGGA | 0.237
ACGGAACT | 0.48
AGAGATCA | -0.212
CTGTAATC | -0.159
ATCGAAAT | 0.00077
CAAGTTCG | -0.0795
AGGTGTCC | 0.0985
AAGAAAGT | -0.0642
GGTCATCA | -0.165
ACTCACGC | -0.162
CATCGTAA | -0.0162
ACTCTATA | 0.064
GTGCAATA | -0.174
AAATGCGC | 0.168
GACCCATA | 0.0151
GATAATGA | -0.0464
AACCGTTA | -0.238
AACCGCCG | 0.247
AACAGGAC | -0.0788
